# Measurements published in a collection of fitness landscapes (doi:10.1016/j.celrep.2020.107928).
# Over roughly 81,000 sequences, “one-hybrid fitness for binding parS DNA” has its median near -0.17; the highest 2% begin near 0.51. The list shows a part of the results.
# B1: Caulobacter ParB omega fusion; a variant is named by its letters at X, in order, B8GW30 (parent)
# chain: MESVVVGEPGMSEGRRGLGRGLSALLGEVDAAPAQAPGEQLGGSREAPIEILQRNPDQPRRTFREEDLEDLSNSIREKGVLQPILVRPSPDTAGEYQIVAGERAWRAAQRAGLKTVPIMVRELDDLAVLEIGIIENVQRADLNVLEEALSYKVLMEKFERTQENIAQTIGKSXSHVANXMRLLXLPDEVQSYLVSGELTAXHARAIAAAADPVALAKQIIEGGLSVRETEALARKAPNLSAGKSKGGRPPRVKDTDTQALESDLSSVLGLDVSIDHRGSTGTLTITYATLEQLDDLCNRLTRGI
# Variants of: B1
# Experiment: one-hybrid fitness for binding parS DNA (scaled: cognate 1, non-cognate 0); higher = stronger binding
# Settings: with parS DNA site
# Procedure, shortened: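 Pre- and post-selection plasmids were Illumina-sequenced, three replicate libraries were pooled, and any variant with under 10 reads was removed. The libraries were Caulobacter ParB with four specificity codons randomised, selected in E. coli USO through a HIS3 reporter whose site is 19 bp from the promoter. Cells grew 48 hours at 37°C on M9 without histidine, with 0.1 mM IPTG and 5 mM 3-AT. Fitness is the log change in variant-to-wild-type read ratio, rescaled against cognate and non-cognate.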
row,Variant,one-hybrid fitness for binding parS DNA
1,SVPR,≤ 0.2
2,RCHV,≤ 0.2
3,RYGY,0.42
4,VNAY,≤ 0.2
5,CMTL,≤ 0.2
6,RLGE,≤ 0.2
7,RSRR,≤ 0.2
8,HLMC,≤ 0.2
9,MKSY,≤ 0.2
10,APNA,≤ 0.2
11,ISTD,≤ 0.2
12,VVIG,≤ 0.2
13,PGVG,≤ 0.2
14,HTEV,≤ 0.2
15,VRFI,≤ 0.2
16,TWPT,≤ 0.2
17,MQLE,≤ 0.2
18,TAEV,≤ 0.2
19,LILF,≤ 0.2
20,HHVG,≤ 0.2
21,YRPC,≤ 0.2
22,MEPD,≤ 0.2
23,FSDF,≤ 0.2
24,SAPN,≤ 0.2
25,RQSY,0.465

row,Variant,one-hybrid fitness for binding parS DNA
1,TLGA,≤ 0.2
2,QPTN,≤ 0.2
3,RNRY,0.503
4,CRVA,≤ 0.2
5,EDKS,≤ 0.2
6,VVYR,≤ 0.2
7,AWQW,≤ 0.2
8,CTQM,≤ 0.2
9,PHHQ,≤ 0.2
10,TCII,≤ 0.2
11,RLDM,0.299
12,RGHD,≤ 0.2
13,QAPD,≤ 0.2
14,RMRN,0.418
15,CMAS,≤ 0.2
16,GGPS,≤ 0.2
17,HTAM,≤ 0.2
18,DVLM,≤ 0.2
19,NRVF,≤ 0.2
20,CGAR,≤ 0.2
21,QIQL,≤ 0.2
22,ETIW,≤ 0.2
23,TADG,≤ 0.2
24,GNSI,≤ 0.2
25,EGSV,≤ 0.2

row,Variant,one-hybrid fitness for binding parS DNA
1,MRRH,≤ 0.2
2,PGDI,≤ 0.2
3,RKQW,≤ 0.2
4,TNPM,≤ 0.2
5,WSQF,≤ 0.2
6,QQGY,≤ 0.2
7,RSMT,0.813
8,QTCY,≤ 0.2
9,RSEL,≤ 0.2
10,SVHW,≤ 0.2
11,ASSP,≤ 0.2
12,YSHS,≤ 0.2
13,KAKW,≤ 0.2
14,QKEN,≤ 0.2
15,DITY,≤ 0.2
16,SQRE,≤ 0.2
17,KLNT,≤ 0.2
18,STMM,≤ 0.2
19,FQVG,≤ 0.2
20,RSWS,0.989
21,VLST,≤ 0.2
22,FAIL,≤ 0.2
23,LHII,≤ 0.2
24,DRDR,≤ 0.2
25,LANT,≤ 0.2

row,Variant,one-hybrid fitness for binding parS DNA
1,MKQG,≤ 0.2
2,WKML,≤ 0.2
3,IVDT,≤ 0.2
4,YDYG,≤ 0.2
5,GPET,≤ 0.2
6,CNSR,≤ 0.2
7,FVAT,≤ 0.2
8,TNMM,≤ 0.2
9,IRHV,≤ 0.2
10,GTSS,≤ 0.2
11,KFTF,≤ 0.2
12,VINF,≤ 0.2
13,KRAW,≤ 0.2
14,SETV,≤ 0.2
15,RRAL,≤ 0.2
16,WCKG,≤ 0.2
17,RYSK,≤ 0.2
18,MTEF,≤ 0.2
19,DINN,≤ 0.2
20,LRPY,≤ 0.2
21,TADY,≤ 0.2
22,VCGG,≤ 0.2
23,DRVC,≤ 0.2
24,QPQK,≤ 0.2
25,NHHR,≤ 0.2

row,Variant,one-hybrid fitness for binding parS DNA
1,QHTC,≤ 0.2
2,EAYC,≤ 0.2
3,CVHG,≤ 0.2
4,DSHM,≤ 0.2
5,LNNN,≤ 0.2
6,YMQC,≤ 0.2
7,RWSD,≤ 0.2
8,AIMP,≤ 0.2
9,NRLD,≤ 0.2
10,LDAR,≤ 0.2
11,CENS,≤ 0.2
12,IRKK,≤ 0.2
13,MCYR,≤ 0.2
14,SLYE,≤ 0.2
15,GIPR,≤ 0.2
16,RFIA,0.373
17,SNSY,≤ 0.2
18,SMKT,≤ 0.2
19,QCQT,≤ 0.2
20,PQFK,0.3
21,RRPK,≤ 0.2
22,LRVQ,≤ 0.2
23,LIKC,≤ 0.2
24,KQLS,≤ 0.2
25,LFNV,≤ 0.2

row,Variant,one-hybrid fitness for binding parS DNA
1,NVNS,≤ 0.2
2,ALHM,≤ 0.2
3,TYYC,≤ 0.2
4,YPKP,≤ 0.2
5,TYER,≤ 0.2
6,YYLS,≤ 0.2
7,RPDM,≤ 0.2
8,CKAG,≤ 0.2
9,DYNR,≤ 0.2
10,CDEF,≤ 0.2
11,REWN,≤ 0.2
12,YWER,≤ 0.2
13,QKCN,≤ 0.2
14,RTAK,≤ 0.2
15,CASW,≤ 0.2
16,DPKA,≤ 0.2
17,TVWA,≤ 0.2
18,RLMH,0.291
19,KYYS,≤ 0.2
20,TANC,≤ 0.2
21,LFSC,≤ 0.2
22,HNGG,≤ 0.2
23,PMVE,≤ 0.2
24,QNAI,≤ 0.2
25,PNLE,≤ 0.2

row,Variant,one-hybrid fitness for binding parS DNA
1,HTAS,≤ 0.2
2,PPDM,≤ 0.2
3,RTKE,≤ 0.2
4,GFAC,≤ 0.2
5,CLEV,≤ 0.2
6,RWWW,≤ 0.2
7,LCMC,≤ 0.2
8,CQAT,≤ 0.2
9,NGLI,≤ 0.2
10,KYYN,≤ 0.2
11,YGWY,≤ 0.2
12,RSGT,0.91
13,GVIT,≤ 0.2
14,LFKC,≤ 0.2
15,AMYT,≤ 0.2
16,DASS,≤ 0.2
17,PTPL,≤ 0.2
18,RVHL,≤ 0.2
19,AFHM,≤ 0.2
20,WGKG,≤ 0.2
21,DEGF,≤ 0.2
22,TPIG,≤ 0.2
23,KRLA,≤ 0.2
24,GYPT,≤ 0.2
25,QKWC,≤ 0.2

row,Variant,one-hybrid fitness for binding parS DNA
1,GTIW,≤ 0.2
2,KMKT,≤ 0.2
3,KFSR,≤ 0.2
4,LLTC,≤ 0.2
5,QQFA,≤ 0.2
6,DMIG,≤ 0.2
7,RMEV,≤ 0.2
8,AVTQ,≤ 0.2
9,NFFP,≤ 0.2
10,KHAC,≤ 0.2
11,ILNR,≤ 0.2
12,SSID,≤ 0.2
13,SWCT,≤ 0.2
14,IRLR,≤ 0.2
15,VPIA,≤ 0.2
16,FSEV,≤ 0.2
17,GNPW,≤ 0.2
18,YLVA,≤ 0.2
19,CTIV,≤ 0.2
20,NRHN,≤ 0.2
